These results are taken from US8648074B2, “Substituted octahydropyrrolo[1,2-a]pyrazine sulfonamides as calcium channel blockers” (AbbVie Inc., priority 2011, dated 2014).

Structures are written as SMILES.

This experiment concerns the target human Cav2.2 (Homo sapiens, UniProt Q00975). Nature of the experiment: In vitro assessment of calcium channel activity using FLIPR (Ca2+ influx in IMR32 cells). The experiment is classed as cell-based. Conditions: IMR32 cells endogenously expressing human Cav2.2; Calcium 4 dye, 60 minute pre-incubation, 2 μM nifedipine, depolarized with 80 mM KCl; average of at least two runs unless marked *.
Take `O=S(=O)(c1cccc(C(F)(F)F)n1)N1CCN2C[C@H](Oc3cnc(C4CC4)cn3)C[C@H]2C1` [Example 66, (7R,8aS)-7-[(5-cyclopropylpyrazin-2-yl)oxy]-2-{[6-(trifluoromethyl)pyridin-2-yl]sulfonyl}octahydropyrrolo[1,2-a]pyrazine]: the IC50 (as a rule, the point on the concentration scale where inhibition reaches its midpoint) stood at 0.46 µM.

Consider `O=C(NC(c1ccccc1)c1ccccc1)[C@H]1C[C@H]2CN(S(=O)(=O)c3cccc(C(F)(F)F)c3)CCN2C1` [Example 37, (7S,8aS)—N-(diphenylmethyl)-2-{[3-(trifluoromethyl)phenyl]-sulfonyl}-octahydropyrrolo[1,2-a]pyrazine-7-carboxamide], for which the IC50 worked out at 0.92 µM.

Consider `O=S(=O)(c1cccc(C(F)(F)F)c1)N1CCN2C[C@@H](Oc3ccc(-n4ccnc4)cc3)C[C@H]2C1` [Example 43, (7S,8aS)-7-[4-(1H-imidazol-1-yl)phenoxy]-2-{[3-(trifluoromethyl)phenyl]-sulfonyl}octahydropyrrolo[1,2-a]pyrazine], for which the IC50 stood at 1.09 µM.

Consider `O=C1C(Oc2cnc(C3CC3)cn2)CC2CN(S(=O)(=O)c3cccc(C(F)(F)F)c3)CCN12` (stereo not drawn) [Example 207, 7-[(5-cyclopropylpyrazin-2-yl)oxy]-2-{[3-(trifluoromethyl)phenyl]-sulfonyl}hexahydropyrrolo[1,2-a]pyrazin-6(2H)-one], for which the IC50 amounted to 0.88 µM.

For the compound `O=S(=O)(c1cccc(C(F)(F)F)c1)N1CCN2C[C@H](Oc3ccc(Br)cn3)C[C@H]2C1` [Example 89, (7R,8aS)-7-[(5-bromopyridin-2-yl)oxy]-2-{[3-(trifluoromethyl)phenyl]-sulfonyl}octahydropyrrolo[1,2-a]pyrazine], the IC50 amounted to 1.13 µM.

For the compound `Cc1nc(C(F)(F)F)ccc1S(=O)(=O)N1CCN2C[C@H](Oc3cnc(C4CC4)cn3)C[C@H]2C1` [Example 177, (7R,8aS)-7-[(5-cyclopropylpyrazin-2-yl)oxy]-2-{[2-methyl-6-(trifluoromethyl)pyridin-3-yl]sulfonyl}octahydropyrrolo[1,2-a]pyrazine], the IC50 was found to be 0.95 µM.

For the compound `COCc1cccc(S(=O)(=O)N2CCN3C[C@H](Oc4cnc(C5CC5)cn4)C[C@H]3C2)c1` [Example 179, (7R,8aS)-7-[(5-cyclopropylpyrazin-2-yl)oxy]-2-{[3-(methoxymethyl)-phenyl]sulfonyl}octahydropyrrolo[1,2-a]pyrazine], the half-maximal inhibitory concentration (IC50) is 1.64 µM.

Take `Cc1ccc(S(=O)(=O)N2CCN3C[C@H](Oc4cnc(C5CC5)cn4)C[C@H]3C2)cc1Cl` [Example 132, (7R,8aS)-2-[(3-chloro-4-methylphenyl)sulfonyl]-7-[(5-cyclopropylpyrazin-2-yl)oxy]octahydropyrrolo[1,2-a]pyrazine]: the IC50 worked out at 2.4 µM.

Regarding `O=S(=O)(c1ccc(C(F)(F)F)cc1)N1CCN2C[C@H](Oc3cncc(C4CC4)n3)C[C@H]2C1` [Example 26, (7R,8aS)-7-[(6-cyclopropylpyrazin-2-yl)oxy]-2-{[4-(trifluoromethyl)phenyl]-sulfonyl}octahydropyrrolo[1,2-a]pyrazine], the IC50 is 1.36 µM.

Turning to `O=S(=O)(c1cccc(C(F)(F)F)c1)N1CCN2C[C@H](Oc3cnc(Cl)c(C(F)(F)F)c3)C[C@H]2C1` [Example 82, (7R,8aS)-7-{[6-chloro-5-(trifluoromethyl)pyridin-3-yl]oxy}-2-{[3-(trifluoromethyl)phenyl]sulfonyl}octahydropyrrolo[1,2-a]pyrazine], the IC50 was found to be 0.75 µM.

For `O=S(=O)(c1ccccc1C(F)(F)F)N1CCN2C[C@H](Oc3cnc(C4CC4)cn3)C[C@H]2C1` [Example 27, (7R,8aS)-7-[(5-cyclopropylpyrazin-2-yl)oxy]-2-{[2-(trifluoromethyl)phenyl]-sulfonyl}octahydropyrrolo[1,2-a]pyrazine], the IC50 was 1.63 µM.

Take `O=S(=O)(c1ccc(C(F)(F)F)cc1Cl)N1CCN2C[C@H](Oc3cccc(C(F)(F)F)n3)C[C@H]2C1` [Example 20, (7R,8aS)-2-{[2-chloro-4-(trifluoromethyl)phenyl]sulfonyl}-7-{[6-(trifluoromethyl)pyridin-2-yl]oxy}octahydropyrrolo[1,2-a]pyrazine]: the IC50 was determined as 1.56 µM.

Consider `O=S(=O)(c1cc(F)c(F)c(F)c1)N1CCN2C[C@H](Oc3cnc(C4CC4)cn3)C[C@H]2C1` [Example 119, (7R,8aS)-7-[(5-cyclopropylpyrazin-2-yl)oxy]-2-[(3,4,5-trifluorophenyl)-sulfonyl]octahydropyrrolo[1,2-a]pyrazine], for which the IC50 is 3.15 µM.

As for `O=S(=O)(c1cccc(C(F)(F)F)c1)N1CCN2C[C@H](Oc3cnc(C4CC4)cn3)C[C@H]2C1` [Example 21, (7R,8aS)-7-[(5-cyclopropylpyrazin-2-yl)oxy]-2-{[3-(trifluoromethyl)phenyl]-sulfonyl}octahydropyrrolo[1,2-a]pyrazine], the IC50 was determined as 0.49 µM.

For `O=S(=O)(c1cccc(N2CCOCC2)n1)N1CCN2C[C@H](Oc3cnc(C4CC4)cn3)C[C@H]2C1` [Example 59, (7R,8aS)-7-[(5-cyclopropylpyrazin-2-yl)oxy]-2-{[6-(morpholin-4-yl)pyridin-2-yl]sulfonyl}octahydropyrrolo[1,2-a]pyrazine], the IC50 amounted to 1.62 µM.

On to `O=S(=O)(c1cccc(C(F)(F)F)c1)N1CCN2C[C@@H](Oc3ccc(OC(F)(F)F)cc3)C[C@H]2C1` [Example 41, (7S,8aS)-7-[4-(trifluoromethoxy)phenoxy]-2-{[3-(trifluoromethyl)phenyl]-sulfonyl}octahydropyrrolo[1,2-a]pyrazine], for which the IC50 came to 0.72 µM.

As for `O=S(=O)(c1cc(F)ccc1F)N1CCN2C[C@H](Oc3cnc(C4CC4)cn3)C[C@H]2C1` [Example 131, (7R,8aS)-7-[(5-cyclopropylpyrazin-2-yl)oxy]-2-[(2,5-difluorophenyl)-sulfonyl]octahydropyrrolo[1,2-a]pyrazine], the IC50 came out at 3.94 µM.

For `Cc1cc(C)cc(S(=O)(=O)N2CCN3C[C@H](Oc4cnc(C5CC5)cn4)C[C@H]3C2)c1` [Example 127, (7R,8aS)-7-[(5-cyclopropylpyrazin-2-yl)oxy]-2-[(3,5-dimethylphenyl)-sulfonyl]octahydropyrrolo[1,2-a]pyrazine], the IC50 turned out to be 1.19 µM.

Consider `O=S(=O)(c1ccc(Cl)c(C(F)(F)F)c1)N1CCN2C[C@H](Oc3cnc(C4CC4)cn3)C[C@H]2C1` [Example 171, (7R,8aS)-2-{[4-chloro-3-(trifluoromethyl)phenyl]sulfonyl}-7-[(5-cyclopropylpyrazin-2-yl)oxy]octahydropyaolo[1,2-a]pyrazine], for which the IC50 is 5.74 µM.

For `O=S(=O)(c1cccc(F)c1N1CCCCC1)N1CCN2C[C@H](Oc3cnc(C4CC4)cn3)C[C@H]2C1` [Example 96, (7R,8aS)-7-[(5-cyclopropylpyrazin-2-yl)oxy]-2-{[3-fluoro-2-(piperidin-1-yl)-phenyl]sulfonyl}octahydropyrrolo[1,2-a]pyrazine], the IC50 is 0.78 µM.

As for `O=S(=O)(c1ccc(Br)cc1)N1CCN2C[C@H](Oc3cnc(C4CC4)cn3)C[C@H]2C1` [Example 150, (7R,8aS)-2-[(4-bromophenyl)sulfonyl]-7-[(5-cyclopropylpyrazin-2-yl)oxy]-octahydropyrrolo[1,2-a]pyrazine], the IC50 was 1.41 µM.

As for `O=C1CN(S(=O)(=O)c2cccc(C(F)(F)F)c2)C[C@@H]2C[C@@H](Oc3cnc(C4CC4)cn3)CN12` [Example 220, (7R,8aS)-7-[(5-cyclopropylpyrazin-2-yl)oxy]-2-{[3-(trifluoromethyl)-phenyl]sulfonyl}hexahydropyrrolo[1,2-a]pyrazin-4(1H)-one], the IC50 came to 0.66 µM.

On to `O=C(N[C@H]1C[C@H]2CN(S(=O)(=O)c3cccc(C(F)(F)F)c3)CCN2C1)c1ccc(F)cc1` [Example 1, 4-fluoro-N-[(7S,8aS)-2-{[3-(trifluoromethyl)phenyl]sulfonyl}octahydropyrrolo[1,2-a]pyrazin-7-yl]benzamide], for which the IC50 was found to be 1.15 µM.

Turning to `O=C(NCCCC(F)(F)F)[C@H]1C[C@H]2CN(S(=O)(=O)c3cccc(C(F)(F)F)c3)CCN2C1` [Example 40, (7S,8aS)—N-(4,4,4-trifluorobutyl)-2-{[3-(trifluoromethyl)phenyl]-sulfonyl}octahydropyrrolo[1,2-a]pyrazine-7-carboxamide], the IC50 worked out at 1.4 µM.

For the compound `COc1ccc(C(C)(C)C)cc1S(=O)(=O)N1CCN2C[C@H](Oc3cnc(C4CC4)cn3)C[C@H]2C1` [Example 71, (7R,8aS)-2-[(5-tert-butyl-2-methoxyphenyl)sulfonyl]-7-[(5-cyclopropylpyrazin-2-yl)oxy]octahydropyrrolo[1,2-a]pyrazine], the IC50 amounted to 2.35 µM.

Turning to `O=S(=O)(c1ccc(Cl)cc1)N1CCN2C[C@H](Oc3cnc(C4CC4)cn3)C[C@H]2C1` [Example 142, (7R,8aS)-2-[(4-chlorophenyl)sulfonyl]-7-[(5-cyclopropylpyrazin-2-yl)oxy]-octahydropyrrolo[1,2-a]pyrazine], the IC50 is 3.03 µM.

As for `COc1ccc(OC)c(S(=O)(=O)N2CCN3C[C@H](Oc4cnc(C5CC5)cn4)C[C@H]3C2)c1` [Example 160, (7R,8aS)-7-[(5-cyclopropylpyrazin-2-yl)oxy]-2-[(2,5-dimethoxyphenyl)-sulfonyl]octahydropyrrolo[1,2-a]pyrazine], the IC50 was determined as 7.08 µM.

On to `COc1ccc(S(=O)(=O)N2CCN3C[C@H](Oc4cnc(C5CC5)cn4)C[C@H]3C2)cc1C(F)(F)F` [Example 106, (7R,8aS)-7-[(5-cyclopropylpyrazin-2-yl)oxy]-2-{[4-methoxy-3-(trifluoromethyl)phenyl]sulfonyl}octahydropyrrolo[1,2-a]pyrazine], for which the IC50 is 1.06 µM.

In the case of `O=C(N[C@H]1C[C@H]2CN(S(=O)(=O)c3ccc(C(F)(F)F)cc3Cl)CCN2C1)c1ccc(Cl)cc1` [Example 7, 4-chloro-N-[(7S,8aS)-2-{[2-chloro-4-(trifluoromethyl)phenyl]sulfonyl}-octahydropyrrolo[1,2-a]pyrazin-7-yl]benzamide], the IC50 was determined as 1.75 µM.

`O=S(=O)(c1cccc(Cl)c1Cl)N1CCN2C[C@H](Oc3cnc(C4CC4)cn3)C[C@H]2C1` [Example 149, (7R,8aS)-7-[(5-cyclopropylpyrazin-2-yl)oxy]-2-[(2,3-dichlorophenyl)-sulfonyl]octahydropyrrolo[1,2-a]pyrazine]: the IC50 amounted to 0.43 µM.
